According to article PMC9911399, “Two distinct binding modes provide the RNA-binding protein RbFox with extraordinary sequence specificity”:
Numbering of substitutions follows the chain as printed; changes in the protein carry UniProt numbers. The list shows a part of the results.

T1: RBFOX1 RRM RbFoxmut (Fox-RRM*) (Homo sapiens, UniProt Q9NWB1 109-208, R118D;E147R;N151S;E152T)
T1 sequence: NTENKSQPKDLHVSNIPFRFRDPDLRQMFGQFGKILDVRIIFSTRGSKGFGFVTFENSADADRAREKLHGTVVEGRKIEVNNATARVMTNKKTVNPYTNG

B1: CAAGAAG (DNA:RNA)
RNA: GGGAGACCGGAAUUCAGAUUGUCCCAAGAAGUUAAAUCCCGUCGUAGCCACCA
DNA 1: CAATCTGAATTCCGGTCTCCC
DNA 2: TGGTGGCTACGACGGGATT
B2: GAUCACC (DNA:RNA)
RNA: B1 RNA with C25G, A27U, G28C, A30C, G31C
DNA 1: CAATCTGAATTCCGGTCTCCC
DNA 2: TGGTGGCTACGACGGGATT
B3: GCAAUGG (DNA:RNA)
RNA: B1 RNA with C25G, A26C, G28A, A29U, A30G
DNA 1: CAATCTGAATTCCGGTCTCCC
DNA 2: TGGTGGCTACGACGGGATT
B4: CGUAAGG (DNA:RNA)
RNA: B1 RNA with A26G, A27U, G28A, A30G
DNA 1: CAATCTGAATTCCGGTCTCCC
DNA 2: TGGTGGCTACGACGGGATT
B5: GACAUCA (DNA:RNA)
RNA: B1 RNA with C25G, A27C, G28A, A29U, A30C, G31A
DNA 1: CAATCTGAATTCCGGTCTCCC
DNA 2: TGGTGGCTACGACGGGATT
B6: CGACAAA (DNA:RNA)
RNA: B1 RNA with A26G, G28C, G31A
DNA 1: CAATCTGAATTCCGGTCTCCC
DNA 2: TGGTGGCTACGACGGGATT
B7: UACGCUA (DNA:RNA)
RNA: B1 RNA with C25U, A27C, A29C, A30U, G31A
DNA 1: CAATCTGAATTCCGGTCTCCC
DNA 2: TGGTGGCTACGACGGGATT
B8: UGGGAAA (DNA:RNA)
RNA: B1 RNA with C25U, A26G, A27G, G31A
DNA 1: CAATCTGAATTCCGGTCTCCC
DNA 2: TGGTGGCTACGACGGGATT
B9: UCGAGUC (DNA:RNA)
RNA: GGGAGACCGGAAUUCAGAUUGUCCUCGAGUCUUAAAUCCCGUCGUAGCCACCA
DNA 1: CAATCTGAATTCCGGTCTCCC
DNA 2: TGGTGGCTACGACGGGATT
B10: GUCCUUA (DNA:RNA)
RNA: B9 RNA with U25G, C26U, G27C, A28C, G29U, C31A
DNA 1: CAATCTGAATTCCGGTCTCCC
DNA 2: TGGTGGCTACGACGGGATT
B11: UGAACCC (DNA:RNA)
RNA: B9 RNA with C26G, G27A, G29C, U30C
DNA 1: CAATCTGAATTCCGGTCTCCC
DNA 2: TGGTGGCTACGACGGGATT
B12: GCAGAUU (DNA:RNA)
RNA: B1 RNA with C25G, A26C, A30U, G31U
DNA 1: CAATCTGAATTCCGGTCTCCC
DNA 2: TGGTGGCTACGACGGGATT
B13: UCUGCCC (DNA:RNA)
RNA: B9 RNA with G27U, A28G, G29C, U30C
DNA 1: CAATCTGAATTCCGGTCTCCC
DNA 2: TGGTGGCTACGACGGGATT
B14: UCCGCAG (DNA:RNA)
RNA: B1 RNA with C25U, A26C, A27C, A29C
DNA 1: CAATCTGAATTCCGGTCTCCC
DNA 2: TGGTGGCTACGACGGGATT
B15: ACAAGCU (DNA:RNA)
RNA: B9 RNA with U25A, G27A, U30C, C31U
DNA 1: CAATCTGAATTCCGGTCTCCC
DNA 2: TGGTGGCTACGACGGGATT
B16: GUUACAA (DNA:RNA)
RNA: B1 RNA with C25G, A26U, A27U, G28A, A29C, G31A
DNA 1: CAATCTGAATTCCGGTCTCCC
DNA 2: TGGTGGCTACGACGGGATT
B17: CCAGAAC (DNA:RNA)
RNA: B1 RNA with A26C, G31C
DNA 1: CAATCTGAATTCCGGTCTCCC
DNA 2: TGGTGGCTACGACGGGATT
B18: CCCACAU (DNA:RNA)
RNA: B1 RNA with A26C, A27C, G28A, A29C, G31U
DNA 1: CAATCTGAATTCCGGTCTCCC
DNA 2: TGGTGGCTACGACGGGATT
B19: GGAAUAA (DNA:RNA)
RNA: B1 RNA with C25G, A26G, G28A, A29U, G31A
DNA 1: CAATCTGAATTCCGGTCTCCC
DNA 2: TGGTGGCTACGACGGGATT
B20: GCUCCGA (DNA:RNA)
RNA: B9 RNA with U25G, G27U, A28C, G29C, U30G, C31A
DNA 1: CAATCTGAATTCCGGTCTCCC
DNA 2: TGGTGGCTACGACGGGATT
B21: CCAUUAC (DNA:RNA)
RNA: B1 RNA with A26C, G28U, A29U, G31C
DNA 1: CAATCTGAATTCCGGTCTCCC
DNA 2: TGGTGGCTACGACGGGATT
B22: UUAUCAA (DNA:RNA)
RNA: B1 RNA with C25U, A26U, G28U, A29C, G31A
DNA 1: CAATCTGAATTCCGGTCTCCC
DNA 2: TGGTGGCTACGACGGGATT
B23: UUACGAG (DNA:RNA)
RNA: B1 RNA with C25U, A26U, G28C, A29G
DNA 1: CAATCTGAATTCCGGTCTCCC
DNA 2: TGGTGGCTACGACGGGATT
B24: GCUAUGU (DNA:RNA)
RNA: B9 RNA with U25G, G27U, G29U, U30G, C31U
DNA 1: CAATCTGAATTCCGGTCTCCC
DNA 2: TGGTGGCTACGACGGGATT
B25: CUGCGGG (DNA:RNA)
RNA: B1 RNA with A26U, A27G, G28C, A29G, A30G
DNA 1: CAATCTGAATTCCGGTCTCCC
DNA 2: TGGTGGCTACGACGGGATT
B26: AUGCGUG (DNA:RNA)
RNA: B9 RNA with U25A, C26U, A28C, C31G
DNA 1: CAATCTGAATTCCGGTCTCCC
DNA 2: TGGTGGCTACGACGGGATT
B27: UCCCAGG (DNA:RNA)
RNA: B1 RNA with C25U, A26C, A27C, G28C, A30G
DNA 1: CAATCTGAATTCCGGTCTCCC
DNA 2: TGGTGGCTACGACGGGATT
B28: GUUAGUA (DNA:RNA)
RNA: B9 RNA with U25G, C26U, G27U, C31A
DNA 1: CAATCTGAATTCCGGTCTCCC
DNA 2: TGGTGGCTACGACGGGATT
B29: GCUAUGC (DNA:RNA)
RNA: B9 RNA with U25G, G27U, G29U, U30G
DNA 1: CAATCTGAATTCCGGTCTCCC
DNA 2: TGGTGGCTACGACGGGATT
B30: CACGGAG (DNA:RNA)
RNA: B1 RNA with A27C, A29G
DNA 1: CAATCTGAATTCCGGTCTCCC
DNA 2: TGGTGGCTACGACGGGATT
B31: UGAAAUU (DNA:RNA)
RNA: B9 RNA with C26G, G27A, G29A, C31U
DNA 1: CAATCTGAATTCCGGTCTCCC
DNA 2: TGGTGGCTACGACGGGATT

target: T1, RBFOX1 RRM RbFoxmut (Fox-RRM*); test: EMSA; HiTS-Eq, 1 nM pool, 10 min; buffer printed only for the single-RNA assays: 10 mM Tris pH 7.5, 150 mM NaCl, 3.4 mM EDTA, 0.001% NP-40, 30 C; conditions: tags: His6 N-terminal (pET28a); label: 5' 32P
Method in brief: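 Relative association constants, normalised to the cognate motif, were derived by comparing read counts of each RNA species with those of the control reaction. The RNA sequenced was the free fraction, separated by 8% native PAGE after a 10 min equilibration in 50 µL of 1 nM 5′-radiolabelled RNA (7 randomized nucleotides) with increasing concentrations of purified wild-type or mutant RbFox RRM.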

Compared with B1, B2 is lower in binding signal: 0.0974 KA relative to UGCAUGU for the first, 0.049 KA relative to UGCAUGU for the second.

First: B3
Second: B4
The binding signal of the first is lower: 0.0714 KA relative to UGCAUGU for the first, 0.0908 KA relative to UGCAUGU for the second.

First: B5
Second: B6
The binding signal of the first is higher: 0.116 KA relative to UGCAUGU for the first, 0.0565 KA relative to UGCAUGU for the second.

Compared with B7, B8 is lower in binding signal: 0.106 KA relative to UGCAUGU for the first, 0.0842 KA relative to UGCAUGU for the second.

First: B9
Second: B10
The binding signal of the first is higher: 0.122 KA relative to UGCAUGU for the first, 0.0907 KA relative to UGCAUGU for the second.

First: B11
Second: B12
The binding signal of the first is lower: 0.0521 KA relative to UGCAUGU for the first, 0.0853 KA relative to UGCAUGU for the second.

Compared with B13, B14 is higher in binding signal: 0.0726 KA relative to UGCAUGU for the first, 0.0819 KA relative to UGCAUGU for the second.

First: B15
Second: B16
The binding signal of the first is higher: 0.084 KA relative to UGCAUGU for the first, 0.0644 KA relative to UGCAUGU for the second.

First: B17
Second: B18
The binding signal of the first is lower: 0.0931 KA relative to UGCAUGU for the first, 0.102 KA relative to UGCAUGU for the second.

First: B19
Second: B20
The binding signal of the first is higher: 0.122 KA relative to UGCAUGU for the first, 0.0815 KA relative to UGCAUGU for the second.

First: B21
Second: B22
The binding signal of the first is higher: 0.106 KA relative to UGCAUGU for the first, 0.0756 KA relative to UGCAUGU for the second.

First: B23
Second: B24
The binding signal of the first is lower: 0.0808 KA relative to UGCAUGU for the first, 0.23 KA relative to UGCAUGU for the second.

First: B25
Second: B26
The binding signal of the first is lower: 0.0951 KA relative to UGCAUGU for the first, 0.261 KA relative to UGCAUGU for the second.

Compared with B27, B28 is higher in binding signal: 0.0761 KA relative to UGCAUGU for the first, 0.141 KA relative to UGCAUGU for the second.

First: B29
Second: B30
The binding signal of the first is lower: 0.112 KA relative to UGCAUGU for the first, 0.121 KA relative to UGCAUGU for the second.

With B31 the binding signal was 0.0713 KA relative to UGCAUGU.
